Data on 94 compounds can be found in PubChem BioAssay AID485344 (National Center for Advancing Translational Sciences (NCATS), 2010).

Screen size: about 340,000 compounds; about 6,900 (2%) were called active. Rule as the data show it: active = inhibition above about 30%; inactive = below that, where a call was filed. The list shows a part of the results, in another mix than the full data. Where no call is shown, the source filed none.

Sequence of UniProt P14416 (P14416 whole entry, looked up): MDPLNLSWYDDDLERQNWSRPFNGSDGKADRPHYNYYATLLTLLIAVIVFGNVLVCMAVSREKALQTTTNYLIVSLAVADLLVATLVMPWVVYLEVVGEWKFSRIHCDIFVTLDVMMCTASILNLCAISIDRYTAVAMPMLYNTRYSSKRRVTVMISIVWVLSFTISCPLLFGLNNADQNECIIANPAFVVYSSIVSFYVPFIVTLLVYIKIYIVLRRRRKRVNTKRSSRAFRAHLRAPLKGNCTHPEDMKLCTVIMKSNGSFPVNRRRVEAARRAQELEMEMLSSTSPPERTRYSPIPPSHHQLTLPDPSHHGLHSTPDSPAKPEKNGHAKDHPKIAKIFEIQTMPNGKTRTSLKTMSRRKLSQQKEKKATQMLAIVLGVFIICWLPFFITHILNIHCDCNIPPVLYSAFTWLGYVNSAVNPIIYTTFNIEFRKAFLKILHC

This test deals with D(2) dopamine receptor (Homo sapiens) (UniProt P14416). The experiment in a line: HTS Assay for Allosteric Antagonists of the Human D2 Dopamine Receptor: Primary Screen for Antagonists. Also: 0% is about no effect. The following applies: HEK293 TREx D2 cells, calcium flux, dopamine EC80; at 10 µM; stronger effect = higher value. Summed up:
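HEK293 T-REx D2 cells, tet-induced, calcium dye no-wash. Cpd pintool add, 180 s kinetic, then EC80 DA, 180 s kinetic. Ca flux read.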
(Calcium flux is commonly read through the fluorescence of an indicator in the cells.)
For the compound `Cn1c(=O)oc2cc(S(=O)(=O)N3CCC(C(=O)N4CCN(c5cccc(Cl)c5)CC4)CC3)ccc21`, the inhibition (usually the change of the read-out against control, counted positive when it falls) is -18.3%. `CCOc1ccc(CCNC(=O)c2ccc(CS(=O)Cc3ccc(Cl)cc3)o2)cc1` (centres undefined): the inhibition is -3.63%. Under `Cc1cc(C(=O)NNC(=S)NC(C)c2ccccc2)c2ccccc2n1` (centres undefined) stands active: 45%. On to `CC(=O)N1CCc2cc(Br)cc(S(=O)(=O)CCC(=O)NCCc3ccc(Cl)cc3)c21`, for which the inhibition came out at 7.78%. The figure for `COc1ccc(Cl)cc1NC(=O)Cn1cc(S(=O)(=O)Cc2cccc(Cl)c2)c2ccccc21` is 1.04%; for `N#C/C(=C\c1ccc(-c2ccc(C(=O)O)cc2)o1)c1nc2ccccc2[nH]1` it is 5.91%. Under `CCc1ccccc1Nc1nn2c(=O)c3ccc(C(=O)NCc4ccccc4Cl)cc3nc2s1` stands -1.94%. The figure for `Cn1nnnc1SCCNCc1ccccc1Cl` is 3.9%. For the compound `COc1cccc(CNC(=O)CN(C)S(=O)(=O)c2ccc3c(c2)c(=O)n(C)c(=O)n3C)c1`, the inhibition is -4.38%. The figure for `CC(C)c1ccc(NC(=O)C(Cc2ccccc2)NS(=O)(=O)c2ccc3c(c2)CCC(=O)N3)cc1` (centres undefined) is 18.2%. Under `Cc1cccc(NC(=S)NCC(c2ccccc2)N(C)C)c1` (centres undefined) stands active: 38.4%.

For the compound `Cc1ccc(OCC(=O)Nc2ccc3nc(SCC(=O)N(C)c4ccccc4)sc3c2)cc1`, the inhibition was 6.15%. Under `COc1ccc(NC(=O)c2sc3nc[nH]c(=O)c3c2C)cc1OC` stands -6.49%; under `CCN(C(=O)CSc1nc2ccc(O)cc2c(=O)n1-c1ccc(OC)c(OC)c1)C1CCS(=O)(=O)C1` (centres undefined), active: 42.8%. The figure for `Cc1ccc(S(=O)(=O)N2CCN(CC(=O)Nc3ccccc3Cl)CC2)cc1` is active: 39.7%; for `Cc1ccc(CSc2nc3c(c(=O)[nH]2)C(c2cccc(F)c2F)CC(=O)N3)cc1` (centres undefined) it is -10.2%; for `CCOC(=O)c1cc(-c2ccc(OC)cc2)nn1Cc1ccccc1` it is 20.8%. Under `COc1ccc(N2CCN(C(=O)c3nn(-c4ccc(C)cc4)c(=O)n(C)c3=O)CC2)cc1` stands -6.63%. On to `Cc1ccc(C)c(Nc2nnc(-c3ccc(C)c(S(=O)(=O)N4CCCCC4)c3)c3ccccc23)c1`, for which the inhibition is 3.54%. Under `COc1cc2nc(SCC(=O)Nc3cccc(C)c3)n3nc(-c4ccccc4)nc3c2cc1OC` stands 18.5%. The figure for `COc1ccc(NC(=O)c2c(NC(=O)c3cccc(C)c3)sc3c2CCCC3)cc1` is 21.7%; for `NC(=O)C1(N2CCCCC2)CCN(CC(=O)Nc2cc(Cl)ccc2Cl)CC1` it is active: 43.4%; for `CC(=O)c1cccc(NC(=O)c2ccc3nc(C(C)C)oc3c2)c1` it is 24.1%. The figure for `COc1ccc(-c2nc(Cn3c(SCc4ccc(F)cc4)nc4cccnc43)c(C)o2)cc1` is -16%.

Take `COc1cc(NC(=O)CC(C)S(=O)(=O)c2cc3c4c(c2)CCN4C(=O)CC3)cc(OC)c1` (centres undefined): the inhibition is -6.24%. Under `Cc1ccccc1C(=O)Nc1cccc(C(=O)OCc2cc(=O)n3nc(C4CC4)sc3n2)c1` stands -8.44%. Under `CC(CCc1ccc(O)cc1)NC1C2CC3CC(C2)CC1C3` (centres undefined) stands active: 71.4%; under `Cc1ccc(C)c(CN2C(=O)c3ccccc3Sc3ccc(C(=O)NCc4ccc5c(c4)OCO5)cc32)c1`, -15.9%; under `COc1ccc(Cn2c(CO)cnc2SCC(=O)NCc2ccco2)cc1`, 6.99%. The figure for `CC1=CC(c2ccccc2)n2nc(NS(=O)(=O)c3ccc(C)cc3)nc2N1` (centres undefined) is active: 121%; for `CCOC(=O)c1[nH]c2ccccc2c1NC(=O)c1cc(OCC)c(OCC)c(OCC)c1` it is -7.36%. Take `Cc1ccc2onc(CC(=O)N3CCN(c4cccc(C)c4C)CC3)c2c1`: the inhibition worked out at 13.8%. The figure for `Cc1cc(=O)n2nc(N3CCC(C(=O)NCc4ccc(Cl)cc4)CC3)sc2n1` is -4.82%; for `Cc1cccc(OCC(O)CN2CCN(c3ccccn3)CC2)c1C` (centres undefined) it is active: 78.2%; for `COc1ccc(-c2noc(CSc3nnc(-c4ccncc4)n3-c3ccc(C)c(C)c3)n2)cc1` it is -2.42%.

In the case of `Clc1ccc(Nc2nc(-c3ccccc3)c3cc(Cl)ccc3n2)cc1`, the inhibition was -12.1%.

Take `Cc1ccccc1NC(=O)Nc1cccs1`: the inhibition was -1.41%. The figure for `CC(=O)C1=C(C)OC(N)=C(C#N)C1c1cc2cc(C)c(C)cc2nc1Cl` (centres undefined) is active: 31.1%; for `O=C1c2oc3ccccc3c(=O)c2C(c2cccc(Br)c2)N1c1ccccn1` (centres undefined) it is -22.1%. Under `CCCCN(C)C(=O)Cn1cnc2sc(C)c(S(=O)(=O)N3CCN(c4ccccc4OC)CC3)c2c1=O` stands -8.77%; under `CNC(=O)c1ccc(NC(=O)COc2ccc(-c3nn(C)c(=O)c4ccccc34)cc2)cc1`, -2.83%; under `Cc1ccc(OCC(=O)N(Cc2sccc2C)C2CCS(=O)(=O)C2)cc1` (centres undefined), -5.98%.

As to `CCc1nn(CC(=O)N2CCN(c3cccc(C)c3C)CC2)c(=O)c2cc3sccc3n12`, the inhibition was -11.7%. Under `CCC(=O)N1CCc2cc(S(=O)(=O)NC(CC(C)C)C(=O)NCc3ccc(C)cc3)ccc21` (centres undefined) stands 9.46%; under `Cc1ccc(O)c(-c2n[nH]c3c2C(c2ccccc2F)N(Cc2ccco2)C3=O)c1` (centres undefined), 4.16%. For `O=C(CN1C(=O)S/C(=C\c2cccs2)C1=O)Nc1ccc(C(=O)O)c(O)c1`, the inhibition was active: 39.8%. As to `Cc1cc2[nH]c(=O)c(=O)[nH]c2cc1S(=O)(=O)Nc1cccc(C(F)(F)F)c1`, the inhibition is -5.35%. Under `Cc1sc2ncn(CC(=O)N3CCN(c4ccc(F)cc4)CC3)c(=O)c2c1S(=O)(=O)N1CCN(c2ncccn2)CC1` stands -2.45%; under `COc1cccc(CNC(=O)CCS(=O)(=O)c2ccc3c(c2)CC(C)N3C(=O)C2CC2)c1` (centres undefined), -0.428%; under `O=C(c1cccs1)N1CCN(C(=O)C2CCCO2)CC1` (centres undefined), active: 37.4%. As for `COc1cc(Cl)c(C)cc1NC(=O)c1cc2c(s1)-c1c(C)cccc1OC2`, the inhibition was -4.42%. On to `O=C(NC(CO)C(O)c1ccc([N+](=O)[O-])cc1)C(Cl)Cl` (centres undefined), for which the inhibition was active: 51.9%.

Consider `O=C(Cn1c(=O)nc(-c2ccccc2)c2cc(Cl)ccc21)NCCc1ccccc1`, for which the inhibition is 13.7%. Under `O=C(c1cccs1)N1CCN(CCCc2ccccc2)CC1` stands active: 58.8%; under `CC1CN(C2CCCCC2)c2nc3c(c(=O)n(C)c(=O)n3C)n2C1` (centres undefined), active: 38.7%. Under `Cc1cc(=O)n2nc(N(C)CC(=O)NCc3ccc(Cl)cc3)sc2n1` stands 0.536%. On to `CCc1cccc(NC(=O)CCN2C(=O)c3ccccc3Sc3ncccc32)c1`, for which the inhibition was -12.4%.

Take `COc1ccc(CN(C(=O)Cc2coc3ccc(C)cc23)C2CCS(=O)(=O)C2)cc1` (centres undefined): the inhibition is 8.11%. The figure for `CCOC(=O)c1cccc(NC(=O)C2CCCN(S(=O)(=O)c3cc(Br)cc4c3N(C(=O)CC)CC4)C2)c1` (centres undefined) is 0.574%. Under `O=C(NCC1CCN(Cc2ccc(F)cc2)CC1)c1cc2ccc3cccnc3c2[nH]1` stands -2.56%. Under `CCOc1ccc(NC(=O)Cn2c(=O)oc3cc(S(=O)(=O)N4CCC(C)CC4)ccc32)cc1` stands -9.61%; under `CCOc1ccc(NC(=O)CN2CCN(c3ccc(Cl)cc3)CC2)cc1`, -14.5%; under `Cn1c(=O)cc(SCC(=O)NCCCN2CCN(c3ccccc3F)CC2)c2ccccc21`, active: 91.6%. Take `O=C(c1cc(F)cc(F)c1)N1CCC(c2nc(-c3ccc(S(=O)(=O)N4CCCC4)cc3)no2)CC1`: the inhibition came to 11.6%. With `COc1ccc(OC)c(CCNC(=O)c2cc3c(=O)n(C)c4ccccc4c3n2C)c1`, the inhibition was determined as 1.59%. The figure for `CCCCN(CC)CCCNC(=O)c1cn(CC)c2ccc(S(=O)(=O)N3CCOCC3)cc2c1=O` is 5.31%; for `Cc1ccc(NC(=O)CSc2nc(-c3ccco3)cc(C(F)(F)F)n2)cc1C` it is 8.31%; for `CCOc1ccccc1-n1nnc(S(=O)(=O)c2ccc(C)cc2)c1N` it is -16.6%. Under `COc1ccc(C2N3CC4(C)CN2CC(c2ccccc2)(C3)C4=O)cc1` (centres undefined) stands -13.5%; under `Cc1ccc(NC(=O)c2nc(-c3ccncc3)no2)c(Cl)c1`, 10.9%. The figure for `COc1cc(NC(=O)c2ncn(-c3ccccc3)n2)cc(OC)c1` is 5.9%; for `Cn1ncc(C(=O)N2CCN(c3ccccc3F)CC2)c1C1CCN(C(=O)OC(C)(C)C)CC1` it is 3.25%.

As for `Cc1cc(SCC(=O)NCc2ccc(F)cc2)nc(=O)[nH]1`, the inhibition is 12.7%. Consider `CC(=O)c1ccc(NC(=O)CSc2nccn2Cc2ccc3c(c2)OCO3)cc1`, for which the inhibition amounted to 2.45%.

With `CCCN1C(C(=O)c2ccccc2)=C(OC(=O)c2ccc(C)cc2)c2ccccc2S1(=O)=O`, the inhibition was -9.92%. In the case of `O=C(NC12CC3CC(CC(C3)C1)C2)N1CCN(c2ccccn2)CC1`, the inhibition is active: 31.1%. Regarding `Cc1ccc(NC(=O)Cn2c(=O)ccc3cc(S(=O)(=O)N4CCC(C)CC4)ccc32)cc1C`, the inhibition is -2.61%.

With `COc1ccc(NC(=O)c2c(C)oc3ccc(O)c(CN4CCOCC4)c23)cc1`, the inhibition is 4.68%. The figure for `Cc1cccc(NC(=O)CSc2nc(=O)n(Cc3cccnc3)c3c2CCC3)c1` is 15.8%. The figure for `O=C(COc1ccc(Cl)cc1)NCCc1csc(-c2cccc(F)c2)n1` is -18%; for `CCOc1ccc(NC(=O)c2oc3ccccc3c2NC(=O)Cc2cccc(C)c2)cc1` it is 3.84%; for `COc1ccc(OC)c(NS(=O)(=O)c2ccc(Br)s2)c1` it is 6.66%. The figure for `CC(C)c1ccc(NC(=O)CCNS(=O)(=O)c2cccc3nsnc23)cc1` is 11.8%.

As for `COc1ccc(C(=O)Oc2ccc(C(c3c(C)[nH][nH]c3=O)c3c(C)[nH][nH]c3=O)cc2OC)cc1`, the inhibition amounted to 8.25%. Under `CN1CCN(CCC(=O)Nc2ccc(Cl)cc2)CC1` stands -11.9%. Under `O=C(CSc1nc(=O)[nH]c2c1CCC2)NCc1ccc(F)cc1` stands -9.19%; under `Cc1cccc(C(=O)Nc2ccc(S(=O)(=O)N3CCCCC3c3cccnc3)cc2)c1` (centres undefined), -21.2%; under `Cc1ccc(-n2ncc3c(N4CCN(Cc5ccccc5)CC4)ncnc32)cc1`, -11.8%. The figure for `COc1ccc(Cl)cc1S(=O)(=O)N1CCN(C(=O)c2cc(-c3ccc(Br)cc3)n[nH]2)CC1` is 4.57%; for `Cc1cccc(-c2nc(C)c(CCNC(=O)C(=O)Nc3ccc(C)c(C)c3)s2)c1` it is -0.389%.

Consider `CCOc1ccccc1CNc1nc2nc(C)c(CC(=O)OC)c(=O)n2[nH]1`, for which the inhibition is -3.04%.

With `CC1=C(C(=O)Nc2ccccc2C)C2(CCCCC2)C(C(N)=O)C(=S)N1` (centres undefined), the inhibition was active: 38%. The figure for `COc1ccc2c(Sc3ccccc3)c(C(=O)NCc3cc(Br)ccc3OC)[nH]c2c1` is -16.6%. The figure for `O=C(CC(c1cccs1)N1Cc2ccccc2C1=O)Nc1cccc(F)c1` (centres undefined) is 4.13%.
